For one assay, the system named is HSkMC. Description: cytotoxicity call (relative viability < 0.9). As to conditions: 10 µM.
A further assay has as its system S. aureus RN4220. Description: growth inhibition call (relative growth <= 0.2). As to conditions: 50 µM.
Another assay concerns HepG2. The experiment in a line: cytotoxicity call (relative viability < 0.9). Conditions: 10 µM.

The other results are listed elsewhere or left out.

Turning to `COc1ccc(S(=O)(=O)N(C)C[C@H]2Oc3ccc(NC(=O)c4ccncc4)cc3C(=O)N([C@@H](C)CO)C[C@@H]2C)cc1`, the cytotoxicity call with HSkMC is “inactive”. For the same compound, in the assay with S. aureus RN4220, the growth inhibition call is “inactive”.
Take `Cc1ccc(S(=O)(=O)N(C)C[C@H]2OCCCC[C@H](C)Oc3ccc(NC(=O)NC4CCCCC4)cc3C(=O)N([C@@H](C)CO)C[C@@H]2C)cc1`: in the assay on HSkMC, the cytotoxicity call is “inactive”. For the same compound, in the assay with S. aureus RN4220, the growth inhibition call is “inactive”.
Consider `O=C(C[C@H]1CC[C@@H]2[C@H](COC[C@H](O)CN2C(=O)Nc2ccc(Cl)c(Cl)c2)O1)NCc1ccncc1`, for which the cytotoxicity call in the assay with HSkMC is “inactive”. In addition, in the assay on S. aureus RN4220, the growth inhibition call is “inactive”.
Consider `C[C@H]1CN([C@@H](C)CO)C(=O)CCCn2nncc2CO[C@@H]1CN(C)C(=O)c1cc(-c2ccccc2)on1`, for which, in the assay on HSkMC, the cytotoxicity call was “inactive”. For the same compound, the growth inhibition call in the assay with S. aureus RN4220 was “inactive”.
In the case of `N=C(N)Nc1nc(=O)c2ccccc2s1`, the cytotoxicity call in the assay with HSkMC was “inactive”. The growth inhibition call with S. aureus RN4220 is “inactive”.
Regarding `C[C@@H]1CCCCO[C@H](CN(C)C(=O)Nc2ccc(C(F)(F)F)cc2)[C@@H](C)CN([C@H](C)CO)C(=O)c2cc(NC(=O)CCCCCC(=O)Nc3ccccc3N)ccc2O1`, the cytotoxicity call in the assay on HSkMC was “inactive”. For the same compound, the growth inhibition call with S. aureus RN4220 was “inactive”.
As for `O=C(C[C@H]1C=C[C@@H](NC(=O)c2cccnc2)[C@@H](CO)O1)NCCN1CCCCC1`, the cytotoxicity call with HSkMC was “inactive”. The growth inhibition call in the assay with S. aureus RN4220 was “inactive”.
Consider `Cc1n[nH]c(NCc2ccco2)nc1=O`, for which, in the assay on HSkMC, the cytotoxicity call is “inactive”. In addition, the growth inhibition call in the assay on S. aureus RN4220 was “inactive”.
As to `C[C@@H]1CN([C@H](C)CO)C(=O)c2cc(C#Cc3cccc(F)c3)cnc2O[C@@H]1CN(C)CC1CCOCC1`, in the assay with HSkMC, the cytotoxicity call was “inactive”. For the same compound, in the assay with S. aureus RN4220, the growth inhibition call is “inactive”.
In the case of `C[C@H]1CN([C@@H](C)CO)C(=O)Cc2cc(NC(=O)Cc3ccccc3)ccc2O[C@H]1CN(C)Cc1ccc(C(F)(F)F)cc1`, the cytotoxicity call in the assay with HSkMC is “inactive”. The growth inhibition call in the assay on S. aureus RN4220 was “inactive”.
Turning to `O=C(C[C@@H]1CC[C@H]2[C@@H](COC[C@@H](O)CN2S(=O)(=O)c2cccc(Cl)c2)O1)N1CCOCC1`, in the assay with HSkMC, the cytotoxicity call was “inactive”. Further, in the assay on S. aureus RN4220, the growth inhibition call was “inactive”.
For the compound `Cc1noc(C)c1S(=O)(=O)Nc1cccc2c1O[C@H](CN(C)C(=O)NC1CCCCC1)[C@H](C)CN([C@H](C)CO)C2=O`, in the assay on HSkMC, the cytotoxicity call is “inactive”. Also, in the assay on S. aureus RN4220, the growth inhibition call was “inactive”.
In the case of `C[C@H](CO)N1C[C@H](C)[C@@H](CN(C)S(C)(=O)=O)Oc2ccc(NC(=O)Nc3ccc(C(F)(F)F)cc3)cc2CC1=O`, the cytotoxicity call with HSkMC was “inactive”. In addition, the growth inhibition call in the assay with S. aureus RN4220 is “inactive”.
Regarding `C[C@H](O)C#Cc1ccc2c(c1)O[C@@H](CN(C)C)[C@@H](C)CN([C@@H](C)CO)S2(=O)=O`, in the assay on HSkMC, the cytotoxicity call was “inactive”. Moreover, the growth inhibition call with S. aureus RN4220 was “inactive”.
As for `C[C@@H]1CN([C@H](C)CO)C(=O)c2cc(NC(=O)Cc3ccccc3)ccc2O[C@@H](C)CCCCO[C@@H]1CN(C)Cc1ccc2c(c1)OCO2`, in the assay with HSkMC, the cytotoxicity call was “inactive”. In the assay with S. aureus RN4220, the growth inhibition call was “inactive”.
On to `NC(=S)CS(=O)(=O)c1ccccn1`, for which the cytotoxicity call in the assay on HSkMC is “inactive”. The growth inhibition call with S. aureus RN4220 is “inactive”.
With `O=C(N[C@@H](c1ccccc1)c1ccc2ccccc2n1)C1CCN(C(=O)NC(c2ccccc2)c2ccccc2)CC1`, the cytotoxicity call with HSkMC was “inactive”. Moreover, in the assay with S. aureus RN4220, the growth inhibition call was “inactive”.
For `CSCC[C@H]1NC(=O)NC1=O`, the cytotoxicity call in the assay on HSkMC is “inactive”. For the same compound, the growth inhibition call in the assay with S. aureus RN4220 was “inactive”.
For the compound `C[C@H]1OC(=O)CC[C@@H](O)/C=C/[C@@H](O)[C@@H]1O`, the cytotoxicity call in the assay with HSkMC is “inactive”. Also, in the assay with S. aureus RN4220, the growth inhibition call was “inactive”.
In the case of `CCS(=O)(=O)NCC[C@@H]1CC[C@@H](NC(=O)Cc2ccccn2)[C@@H](CO)O1`, the cytotoxicity call in the assay with HSkMC was “inactive”. Further, in the assay on S. aureus RN4220, the growth inhibition call was “inactive”.
As to `Cc1noc(C)c1S(=O)(=O)Nc1ccc2c(c1)C(=O)N([C@@H](C)CO)C[C@@H](C)[C@@H](CN(C)Cc1ccc(Oc3ccccc3)cc1)O2`, the cytotoxicity call with HSkMC was “inactive”. Besides, in the assay on S. aureus RN4220, the growth inhibition call is “inactive”.
Consider `C[C@H](CO)N1C[C@H](C)[C@@H](CN(C)S(=O)(=O)c2cccs2)Oc2ccc(NC(=O)Cn3cnnn3)cc2C1=O`, for which the cytotoxicity call in the assay with HSkMC was “inactive”. In the assay with S. aureus RN4220, the growth inhibition call is “inactive”.
In the case of `C[C@@H]1CN([C@H](C)CO)C(=O)c2cc(C#CC3CCCCC3)cnc2O[C@H]1CN(C)C(=O)c1ccncc1`, the cytotoxicity call in the assay with HSkMC and in the assay with HepG2 was “inactive” throughout. Moreover, the growth inhibition call with S. aureus RN4220 was “inactive”.
Turning to `O=C(CCCCC(=O)N/N=C/[C@H](O)[C@H](O)[C@@H](O)[C@@H](O)CO)NO`, the cytotoxicity call in the assay with HSkMC and in the assay with HepG2 was “inactive” throughout. In the assay with S. aureus RN4220, the growth inhibition call was “inactive”.
`COc1ccc(CNC(=O)C[C@H]2C[C@H]3c4cc(NS(=O)(=O)c5ccc(F)cc5)ccc4O[C@H]3[C@H](CO)O2)cc1`: the cytotoxicity call in the assay with HSkMC is “inactive”. Besides, in the assay on S. aureus RN4220, the growth inhibition call was “inactive”.
Regarding `Nc1no[n+]([O-])c1-c1ccccc1`, in the assay on HSkMC, the cytotoxicity call is “inactive”. Also, in the assay on S. aureus RN4220, the growth inhibition call was “inactive”.
For the compound `CC[C@@](C)(Nc1n[nH]c(=O)[nH]c1=O)C(=O)O`, in the assay on HSkMC (human skeletal muscle cells), the cytotoxicity call was “inactive”. For the same compound, in the assay with S. aureus RN4220, the growth inhibition call was “inactive”.
Take `C[C@@H]1CN([C@H](C)CO)C(=O)c2cccc(NC(=O)NC3CCCCC3)c2O[C@@H]1CN(C)Cc1ccc(C(F)(F)F)cc1`: the cytotoxicity call with HSkMC was “inactive”. Besides, the cytotoxicity call in the assay on HepG2 is “active”. The growth inhibition call with S. aureus RN4220 is “inactive”.
As for `CO[C@H]1C[C@@H](C[C@@H](C)[C@H]2CC(=O)[C@@H](C)/C=C(/C)[C@@H](O)[C@@H](OC)C(=O)[C@@H](C)C[C@@H](C)C=C/C=C\C=C(C)[C@H](OC)C[C@H]3CC[C@@H](C)[C@@](O)(O3)C(=O)C(=O)N3CCCC[C@@H]3C(=O)O2)CC[C@@H]1O`, the cytotoxicity call with HSkMC and with HepG2 was “inactive” each time. The growth inhibition call in the assay on S. aureus RN4220 is “inactive”.

Values taken from the antibiotic and cytotoxicity screens of Wong et al. (2023).
